Measured values reported in US20250170268A1, “METHODS AND TOOLS FOR CONJUGATION TO ANTIBODIES” (priority 2022, published 2025).
“Also recorded” adds a separate entry of the source.

Legend:
[1] = Pharmacokinetic study in human FcRn transgenic mice
[2] = test system: human pancreatic, cell line derived xenograft model BxPC3; assay: BxPC3 xenograft efficacy study; type: in vivo, mice (Hsd: Athymic Nude-Foxn1nu); details: single i.v. treatment day 0; ADC1-M 5 mg/kg; ADC2-M 5 mg/kg or 10 mg/kg
Method: Efficacy of ADC1-M and ADC2-M has been evaluated in the human pancreatic, cell line derived xenograft model BxPC3 (ATCC, CRL-1687). 5×10^6 BxPC3 cells were injected subcutaneously into the right flank of six to eight weeks old immunodeficient female mice (Hsd: Athymic Nude-Foxn1nu, Envigo). When tumors reached a mean volume of 85 mm^3, 10 mice/group were treated once intravenously with vehicle (saline solution) or ADC1-M (5 mg/kg; day 0) or with ADC2-M (5 mg/kg or 10 mg/kg; day 0). Tumor length (L) and width (W) were measured with calipers and tumor volumes were calculated using L×(W^2)/2.

[3] = test system: CEACAM5-positive SK-CO-1 cells; assay: Cell viability assay (Cell Titer-Glo, six days) on SK-CO-1; type: cell-based, human; details: at the highest tested compound concentration
Method: (§1) Cytotoxicity effects of the ADC on the cancer cell lines were measured by cell viability assays. Cells were seeded in a volume of 90 μL in 96-well plates the day before treatment. Test compounds (ADCs or free payloads) were formulated at 10-fold the starting concentration in cell culture medium. Test compounds were serial diluted (1:4) and 10 μL of each dilution was added to the cells in triplicates. Plates were cultured at 37° C. in a CO2 incubator for six days. For cell viability measurement, Cell Titer-Glo® reagent (Promega™ Corp, Madison, WI) was added to each well, and plates processed according to the manufacturer's instructions. Luminescence signals were measured using a Varioskan plate reader (Thermo Fisher). Luminescence readings were converted to % viability relative to untreated cells. Data was fitted with non-linear regression analysis, using log (inhibitor) vs. response, variable slope, 4-parameter fit equation using Genedata Screener or GraphPad Prism. Data is shown as % relative cell viability vs. molar compound concentration, error bars indicating standard deviation (SD) of duplicates or triplicates. Geometric mean values of IC50s derived from multiple experiments were calculated.
(§2) A fold reduction in IC50, defined as a S[…], was calculated by dividing the IC50 against CEACAM5-negative MDA-MB-231 cells by the IC50 against each CEACAM5-positive cell line (see Table 6). […]

[4] = test system: CEACAM5-positive LS174T cells; assay: Cell viability assay (Cell Titer-Glo, six days) on LS174T; type: cell-based, human; details: at the highest tested compound concentration
Method: as §1

[5] = test system: CEACAM5-negative MDA-MB-231 cells in the presence of CEACAM5-positive SK-CO-1; assay: Bystander assay, co-culture of antigen-negative and antigen-positive cells; type: cell-based, human
[6] = test system: CEACAM5-positive MKN-45 cells; assay: Cell viability assay (Cell Titer-Glo, six days) on MKN-45; type: cell-based, human; details: at the highest tested compound concentration
Method: as §1, §2

[7] = test system: CEACAM5-positive cell lines; assay: Cell viability assay, CEACAM5-positive cell lines taken together; type: cell-based, human
Method: as §1, §2

[8] = test system: CEACAM5-positive SNU-16 cells; assay: Cell viability assay (Cell Titer-Glo, six days) on SNU-16; type: cell-based, human; details: at the highest tested compound concentration
Method: as §1, §2

[9] = test system: CEACAM5-negative MDA-MB-231 cells; assay: Cell viability assay (Cell Titer-Glo, six days) on MDA-MB-231; type: cell-based, human
Method: as §1, §2

[10] = 3 mg/kg single i.v., HuFcRn mice

B1: ADC2-M (conjugate)
heavy: EVQLQESGPGLVKPSQTLSLTCTVSDGSVSRGGYYLTWIRQHPGKGLEWIGYIYYSGSTYFNPSLRSRVTMSVDTSKNQFSLKLSSVTAADTAVYYCARGIAVAPFDYWGQGTLVTVSSASTKGPSVFPLAPSSKSTSGGTAALGCLVKDYFPEPVTVSWNSGALTSGVHTFPAVLQSSGLYSLSSVVTVPSSSLGTQTYICNVNHKPSNTKVDKRVEPKSCDKTHTCPPCPAPEAAGGPSVFLFPPKPKDTLYITREPEVTCVVVDVSHEDPEVKFNWYVDGVEVHNAKTKPREEQYNSTYRVVSVLTVLHQDWLNGKEYKCKVSNKALPAPIEKTISKAKGQPREPQVYTLPPSREEMTKNQVSLTCLVKGFYPSDIAVEWESNGQPENNYKTTPPVLDSDGSFFLYSKLTVDKSRWQQGNVFSCSVMHEALHNHYTQKSLSLSPG
light: EIVLTQSPATLSVSPGERATLSCRTSQSVRSNLAWYQQKPGQAPRLLIYAASTRATGIPARFSGSGSGTEFTLTISSLQSEDFAVYYCQQYTNWPFTFGPGTKVDIKRTVAAPSVFIFPPSDEQLKSGTASVVCLLNNFYPREAKVQWKVDNALQSGNSQESVTEQDSKDSTYSLSSTLTLSKADYEKHKVYACEVTHQGLSSPVTKSFNRGECGGTLQSPP
[1]; [10]
  AUCinf: 10200 µg·h/mL
  AUClast: 8360 µg·h/mL
  Vss: 0.0877 L/kg
[1]; % of extrapolated AUCinf, 3 mg/kg single i.v., HuFcRn mice
  %_Ext (%): 18.4%
[1]; assuming dilution in 40 mL/kg plasma volume
  C0 relative to theoretical maximal concentration: slightly lower than theoretical maximal concentration
[1]; single iv administration of 3 mg/kg in transgenic mice
  PK profile: best PK profile
[2]
  anti-tumor effect, BxPC3 xenograft: significant anti-tumor effect
[3]
  Maximal effect compared to untreated controls, SK-CO-1: (−92%)
[4]
  Maximal effect compared to untreated controls, LS174T: (−67%)
[5]; 1E-9M, MDA-MB-231 cells alone
  non-specific effect on MDA-MB-231 only controls in bystander assay: no non-specific effect
[5]; ADC concentration of 1 nM, co-culture with SK-CO-1
  bystander effect against CEACAM5-negative MDA-MB-231 cells: potent bystander effect; also recorded: much more potent bystander effect
[6]
  Maximal effect compared to untreated controls, MKN-45: (−80%)
[7]
  in vitro potency against CEACAM5-positive cell lines: sub-nanomolar to single digit nanomolar
[8]
  Maximal effect compared to untreated controls, SNU-16: (−78%)
[9]; at the highest tested compound concentration
  Maximal effect compared to untreated controls, MDA-MB-231: (−16%)
[9]; viability assay
  effects on CEACAM5-negative MDA-MB-231 cell viability: minor
